Among all 420,000 compounds or so, about 64,000 (15%) were called active. This list was built around the results that the source calls inconclusive (neither active nor inactive); the mix of calls is not that of the screen. The call rests on the fitted dose curve; in most records, active means well fitted inhibition curve with a large enough effect; inconclusive means small, poorly fitted or top-dose-only effect; inactive means flat fitted curve, though single readings scatter. No potency is given beside an inconclusive call; the fits are too rough.
Assay: qHTS for Inhibitors of human tyrosyl-DNA phosphodiesterase 1 (TDP1): qHTS in cells in absence of CPT; further: nearly all actives have a fitted effect of over 55% in size
Conditions: DT40 Tdp1-/- hTDP1 cells, no CPT, ATP luminescence, 48 h; activity change, negative = growth inhibition: at 46.2 µM (top of the series) unless noted
In short: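 Camptothecin absent (DMSO only). Human TDP1-complemented DT40 knockout cells, 400 cells/well, 37 °C for minimum 48 hr; ATP measured via CellTiter-Glo, 30 min dark incubation, luminescence.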
On the % scale 0 is the no-effect control and ±100 the full control effect; potency means the concentration at half of the fitted maximal effect; tags describe the fitted curve by direction and shape.

Compound | Potency | activity change, negative = growth inhibition
COCCCNC(=O)c1cc(Cc2ccccc2)sc1N | inconclusive [inhibitor, single point] | 
OCC1(CCOc2ccccc2)CCN(Cc2ccc3cccc(F)c3n2)CC1 | inconclusive [inhibitor, partial curve, poor fit] | 
CCOc1cc(N2CCOCC2)c(OCC)cc1NC(=O)COC(=O)COc1cc(C)cc(C)c1 |  | inactive: -10.3%
CC1CCCCC1NC(=O)CSc1nnc(COc2ccccc2Cl)o1 (stereo not given) | inconclusive [inhibitor, single point] | 
O=C1CSC(=S)N1/N=C/c1ccc(O)c(O)c1O | inconclusive [inhibitor, single point] | 
CC(=O)Nc1cc2c3ccccc3ccc2c2ccccc12 |  | inactive: -17.6%
CCOc1ccc(Nc2cc(C)nc3c(C)cccc23)cc1 | inconclusive [inhibitor, single point] | 
Cc1cccc(CCNC(=O)C2CCCN(S(=O)(=O)c3cccc4nsnc34)C2)c1 (stereo not given) | inconclusive [inhibitor, single point] | 
N#Cc1cc2c(=O)n3ccccc3nc2n(Cc2cccnc2)c1=O |  | inactive: -6.73%
O=C(NCCN1CCN(c2ccccc2)CC1)Nc1ccc(Cl)cc1 |  | inactive: -25.5%
CCN1C(=NCCc2ccccn2)N[C@@H](c2cccc(C(F)(F)F)c2)C(C(=O)OC)=C1C | active: 16.4 µM | 
N#CCCN(NC1=NS(=O)(=O)c2ccccc21)C(=O)c1ccccc1Br |  | inactive: -7.58%
COc1ccccc1N1CCN(C(c2ccc(Cl)cc2)c2nnc(-c3cccc(F)c3)o2)CC1 (stereo not given) | inconclusive [inhibitor, single point] | 
CCc1nnc(NCC(=O)N2CCc3ccccc32)s1 | inconclusive [inhibitor, single point] | 
COc1ccccc1C(=O)Nc1cc2cc(Br)ccc2oc1=O | inconclusive [inhibitor, partial curve] | 
O=C1CC(N2CCC(O)CC2)C(=O)N1c1ccc(Br)cc1 (stereo not given) | inconclusive [inhibitor, single point] | 
Cc1cc(N)n2ncc(-c3ccc(Cl)cc3)c2n1 | inconclusive [inhibitor, single point] | 
Cc1ccc(CNC(=O)c2cc3ccccc3oc2=O)cc1 |  | inactive: -26.9%
CCOC(=O)N1CCN(C(=O)Cc2ccccc2OC)CC1 |  | inactive: -11.6%
Cc1oc(-c2ccc(Cl)cc2)cc1C(=O)/C(C#N)=C/Nc1cccc(OC(F)(F)F)c1 | inconclusive [inhibitor, partial curve] | 
COc1ccc(CN2CCN(CCc3ccccc3)C(CCO)C2)c(Cl)c1OC (stereo not given) |  | inconclusive: -31.8% [inhibitor]
COc1cc2cc(CN(CCCO)S(=O)(=O)c3ccccc3)c(=O)[nH]c2cc1OC |  | inactive: -20.8%
C=CCc1c(C)nc(-c2ccccc2)nc1Nc1ccccc1O | inconclusive [inhibitor, single point] | 

Compound | Potency | activity change, negative = growth inhibition
COC(=O)c1c(/N=C/N(C)C)sc2c1CCN(c1ncc(C(F)(F)F)cc1Cl)C2 | inconclusive [inhibitor, single point] | 
CCCSc1oc(-c2ccco2)nc1S(=O)(=O)c1ccc(Cl)cc1 | inconclusive [inhibitor, single point] | 
FC(F)(F)c1cccc(NC(=S)NC2CCCC2)c1 | inconclusive [inhibitor, single point] | 
CN(Cc1cnccn1)Cc1cn(Cc2ccccc2)nc1-c1ccc2c(c1)OCO2 |  | inactive: -2.19%
CCOC(=O)c1c(-c2ccccc2)oc2ccc(OCC(=O)NNC(=O)CCC(=O)O)cc12 |  | inactive: -7.35%
CCN(CC)C(=O)C1CCN(S(=O)(=O)c2ccc(-n3cnnn3)cc2)CC1 | inconclusive [inhibitor, partial curve] | 
COc1cccc(-c2nnn(CC(=O)N(CC(C)C)C3CCS(=O)(=O)C3)n2)c1 (stereo not given) |  | inactive: -21.4%
Cc1oc(-c2ccccc2F)nc1CS(=O)CC(=O)NCc1ccc(F)cc1 (stereo not given) | inconclusive [inhibitor, single point] | 
CCN(CC)c1nc(C)nc2c1sc(=S)n2C | inconclusive [inhibitor, single point] | 
NC(=O)c1nsc(C(=O)N(Cc2ccco2)C(C(=O)NCc2ccc(F)cc2)c2ccc(O)cc2)c1N (stereo not given) | inconclusive [inhibitor, partial curve, poor fit] | 
Cc1ccc(Nc2nc(CSc3nnc(-c4ccncc4)n3-c3ccccc3C)cs2)cc1 | active: 11.6 µM | 
O=C(Cc1cnc2ncnn2c1)N1CCc2c([nH]c3ccccc23)C1c1ccccc1F (stereo not given) | inconclusive [inhibitor, single point] | 
COc1ccccc1C(=O)NCC(=O)OCC(=O)NNC(=O)c1ccc(Br)cc1 |  | inactive: -3.83%
O=C(NCC1CCCCC1)C1CCC(=O)N(CCc2cccc(F)c2)C1 (stereo not given) | inconclusive [inhibitor, single point] | 
COc1ccc(CCNC(=O)CN(C2CCCCC2)S(C)(=O)=O)cc1OC |  | inactive: -20.5%
CC1(C)CC(=O)C(C(C2=C(O)CC(C)(C)CC2=O)c2ccc([N+](=O)[O-])cc2)C(=O)C1 (stereo not given) |  | inactive: -16.3%
COc1ccc(CC(=O)Nc2sc3c(c2C(=O)Nc2cccc(C)c2)CCCCC3)cc1 | inconclusive [inhibitor, single point] | 
COc1ccccc1CNC(=O)c1cnc(N(C)C)nc1 | inconclusive [inhibitor, single point] | 
O=C(Nc1ccccc1C(F)(F)F)C1CC(=O)N(c2ccccc2F)C1 (stereo not given) |  | inactive: -2.18%
Cc1nnc(SCC(=O)Nc2ncc(Cl)cc2Cl)n1Cc1ccccc1 | inconclusive [inhibitor, single point] | 
O=C(C[C@@H]1CC[C@@H]2[C@H](COC[C@@H](O)CN2Cc2cc(F)ccc2F)O1)NCc1ccc(F)cc1 | inconclusive [inhibitor, single point] | 
CCOc1ccc(/C=C/C(=O)OCC(=O)NCCc2ccc(OCC)c(OCC)c2)cc1OC | inconclusive [inhibitor, single point] | 

From PubChem BioAssay AID686978 (National Center for Advancing Translational Sciences (NCATS), 2013)
